# Assay results published in the supplement of paper PMC8728848.
# Some of the results follow.
# B1: Dectin-1 CTLD (Mus musculus), Q6QLQ4 (protein)
# chain: MKYHSHIENLDEDGYTQLDFSTQDIHKRPRGSEKGSRAPSSPWRPIAVGLGILCFVVVVVAAVLGALAFWRHNSGRNPEEKDNFLSRNKENHKPTESSLDEKVAPSKASQTTGGFSQSCLPNWIMHGKSCYLFSFSGNSWYGSKRHCSQLGAHLLKIDNSKEFEFIESQTSSHRINAFWIGLSRNQSEGPWFWEDGSAFFPNSFQVRNTVPQESLLHNCVWIHGSEVYNQICNTSSYSICEKEL
# Experiments:
# Test in all cases: glycan array binding signal (z-score within array); higher = stronger binding
# Conditions in all cases: glycan notation: IUPAC condensed, linker removed
# [1] = target: GlcNAc(b1-4)[GlcNAc(b1-6)]GalNAc
# Method in brief: (§1)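 Columns mapping to the same glycan were averaged after glycan names were converted to IUPAC-condensed notation. The data come from 3228 arrays in the Consortium for Functional Glycomics database, limited to those with an available protein sequence. Binding is reported as a within-array Z-score averaged across arrays of one protein sequence and across linkers.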
# [2] = target: GlcNAc(b1-6)Gal(b1-4)GlcNAc
# Method in brief: as §1
# [3] = target: GlcNAc(b1-6)GalNAc
# Method in brief: as §1
# [4] = target: Kdn(a2-3)Gal(b1-3)GlcNAc
# Method in brief: as §1
# [5] = target: Kdn(a2-3)Gal(b1-4)GlcNAc
# Method in brief: as §1
# [6] = target: Man(a1-2)Man(a1-2)Man(a1-3)Man
# Method in brief: as §1
# [7] = target: Man(a1-2)Man(a1-2)Man(a1-3)[Man(a1-2)Man(a1-3)[Man(a1-2)Man(a1-6)]Man(a1-6)]Man(b1-4)GlcNAc(b1-4)GlcNAc
# Method in brief: as §1
# [8] = target: Man(a1-2)Man(a1-2)Man(a1-3)[Man(a1-2)Man(a1-6)[Man(a1-3)]Man(a1-6)]Man(b1-4)GlcNAc(b1-4)GlcNAc
# Method in brief: as §1
# [9] = target: Man(a1-2)Man(a1-2)Man(a1-6)[Man(a1-3)]Man
# Method in brief: as §1
# [10] = target: Man(a1-2)Man(a1-3)Man
# Method in brief: as §1
# [11] = target: Man(a1-2)Man(a1-3)[Man(a1-2)Man(a1-6)]Man
# Method in brief: as §1
# [12] = target: Man(a1-2)Man(a1-3)[Man(a1-3)[Man(a1-6)]Man(a1-6)]Man(b1-4)GlcNAc(b1-4)GlcNAc
# Method in brief: as §1
# [13] = target: Man(a1-2)Man(a1-3)[Man(a1-6)]Man(a1-6)[Man(a1-2)Man(a1-3)]Man(b1-4)GlcNAc(b1-4)GlcNAc
# Method in brief: as §1
# [14] = target: Man(a1-3)[Man(a1-6)]Man
# Method in brief: as §1
# [15] = target: Man(a1-3)[Man(a1-6)]Man(a1-6)[Man(a1-3)]Man(b1-4)GlcNAc(b1-4)GlcNAc
# Method in brief: as §1
# [16] = target: Man(a1-3)[Man(a1-6)]Man(b1-4)GlcNAc(b1-4)GlcNAc
# Method in brief: as §1
# [17] = target: Man(b1-4)GlcNAc
# Method in brief: as §1
# [18] = target: Neu5Ac(a2-3)Gal
# Method in brief: as §1
# [19] = target: Neu5Ac(a2-3)Gal(b1-3)GalNAc
# Method in brief: as §1
# [20] = target: Neu5Ac(a2-3)Gal(b1-3)GalNAc(b1-3)Gal(a1-4)Gal(b1-4)Glc
# Method in brief: as §1
# [21] = target: Neu5Ac(a2-3)Gal(b1-3)GalNAc(b1-4)[Neu5Ac(a2-3)]Gal(b1-4)Glc
# Method in brief: as §1
# [22] = target: Neu5Ac(a2-3)Gal(b1-3)GalNAc6S
# Method in brief: as §1
# [23] = target: Neu5Ac(a2-3)Gal(b1-3)GlcNAc
# Method in brief: as §1
# [24] = target: Neu5Ac(a2-3)Gal(b1-3)GlcNAc(b1-3)Gal(b1-4)GlcNAc
# Method in brief: as §1
# [25] = target: Neu5Ac(a2-3)Gal(b1-3)GlcNAc6S
# Method in brief: as §1
# [26] = target: Neu5Ac(a2-3)Gal(b1-3)[Fuc(a1-4)]GlcNAc
# Method in brief: as §1
# [27] = target: Neu5Ac(a2-3)Gal(b1-3)[Fuc(a1-4)]GlcNAc(b1-3)Gal(b1-4)[Fuc(a1-3)]GlcNAc
# Method in brief: as §1
# [28] = target: Neu5Ac(a2-3)Gal(b1-3)[Neu5Ac(a2-3)Gal(b1-4)]GlcNAc
# Method in brief: as §1
# [29] = target: Neu5Ac(a2-3)Gal(b1-3)[Neu5Ac(a2-6)]GalNAc
# Method in brief: as §1
# [30] = target: Neu5Ac(a2-3)Gal(b1-4)Glc
# Method in brief: as §1
# [31] = target: Neu5Ac(a2-3)Gal(b1-4)GlcNAc
# Method in brief: as §1
# [32] = target: Neu5Ac(a2-3)Gal(b1-4)GlcNAc(b1-3)Gal(b1-4)GlcNAc
# Method in brief: as §1
# [33] = target: Neu5Ac(a2-3)Gal(b1-4)GlcNAc(b1-3)Gal(b1-4)GlcNAc(b1-3)Gal(b1-4)GlcNAc
# Method in brief: as §1
# [34] = target: Neu5Ac(a2-3)Gal(b1-4)GlcNAc(b1-3)Gal(b1-4)[Fuc(a1-3)]GlcNAc
# Method in brief: as §1
# [35] = target: Neu5Ac(a2-3)Gal(b1-4)GlcNAc6S
# Method in brief: as §1
# [36] = target: Neu5Ac(a2-3)Gal(b1-4)[Fuc(a1-3)]GlcNAc
# Method in brief: as §1
# [37] = target: Neu5Ac(a2-3)Gal(b1-4)[Fuc(a1-3)]GlcNAc(b1-3)Gal
# Method in brief: as §1
# [38] = target: Neu5Ac(a2-3)Gal(b1-4)[Fuc(a1-3)]GlcNAc(b1-3)Gal(b1-4)GlcNAc
# Method in brief: as §1
# [39] = target: Neu5Ac(a2-3)Gal(b1-4)[Fuc(a1-3)]GlcNAc(b1-3)Gal(b1-4)[Fuc(a1-3)]GlcNAc(b1-3)Gal(b1-4)[Fuc(a1-3)]GlcNAc
# Method in brief: as §1
# [40] = target: Neu5Ac(a2-3)Gal(b1-4)[Fuc(a1-3)]GlcNAc6S
# Method in brief: as §1
# [41] = target: Neu5Ac(a2-3)Gal6S(b1-4)GlcNAc
# Method in brief: as §1
# [42] = target: Neu5Ac(a2-3)Gal6S(b1-4)[Fuc(a1-3)]GlcNAc
# Method in brief: as §1
# [43] = target: Neu5Ac(a2-3)GalNAc
# Method in brief: as §1
# [44] = target: Neu5Ac(a2-3)GalNAc(b1-4)GlcNAc
# Method in brief: as §1
# [45] = target: Neu5Ac(a2-3)[GalNAc(b1-4)]Gal(b1-4)Glc
# Method in brief: as §1
# [46] = target: Neu5Ac(a2-3)[GalNAc(b1-4)]Gal(b1-4)GlcNAc
# Method in brief: as §1
# [47] = target: Neu5Ac(a2-3)[Neu5Ac(a2-6)]GalNAc
# Method in brief: as §1
# [48] = target: Neu5Ac(a2-6)Gal(b1-4)GlcNAc
# Method in brief: as §1
# [49] = target: Neu5Ac(a2-6)Gal(b1-4)GlcNAc(b1-2)Man(a1-3)[Neu5Ac(a2-6)Gal(b1-4)GlcNAc(b1-2)Man(a1-6)]Man(b1-4)GlcNAc(b1-4)GlcNAc
# Method in brief: as §1
# [50] = target: Neu5Ac(a2-6)Gal(b1-4)GlcNAc(b1-3)Gal(b1-4)GlcNAc
# Method in brief: as §1
# [51] = target: Neu5Ac(a2-6)Gal(b1-4)GlcNAc(b1-3)Gal(b1-4)[Fuc(a1-3)]GlcNAc(b1-3)Gal(b1-4)[Fuc(a1-3)]GlcNAc
# Method in brief: as §1
# [52] = target: Neu5Ac(a2-6)Gal(b1-4)GlcNAc6S
# Method in brief: as §1
# [53] = target: Neu5Ac(a2-6)GalNAc
# Method in brief: as §1
# [54] = target: Neu5Ac(a2-6)GalNAc(b1-4)GlcNAc
# Method in brief: as §1
# [55] = target: Neu5Ac(a2-8)Neu5Ac
# Method in brief: as §1
# [56] = target: Neu5Ac(a2-8)Neu5Ac(a2-3)Gal(b1-4)Glc
# Method in brief: as §1
# [57] = target: Neu5Ac(a2-8)Neu5Ac(a2-3)[GalNAc(b1-4)]Gal(b1-4)Glc
# Method in brief: as §1
# [58] = target: Neu5Ac(a2-8)Neu5Ac(a2-8)Neu5Ac
# Method in brief: as §1
# [59] = target: Neu5Ac(a2-8)Neu5Ac(a2-8)Neu5Ac(a2-3)Gal(b1-4)Glc
# Method in brief: as §1
# [60] = target: Neu5Ac(a2-8)Neu5Ac(a2-8)Neu5Ac(a2-3)[GalNAc(b1-4)]Gal(b1-4)Glc
# Method in brief: as §1
# [61] = target: Neu5Ac(a2-8)Neu5Ac(a2-8)Neu5Ac(a2-8)Neu5Ac(a2-3)[GalNAc(b1-4)]Gal(b1-4)Glc
# Method in brief: as §1
# [62] = target: Neu5Ac9Ac(a2-6)Gal(b1-4)GlcNAc
# Method in brief: as §1
# [63] = target: Neu5Gc(a2-3)Gal(b1-3)GlcNAc
# Method in brief: as §1
# [64] = target: Neu5Gc(a2-3)Gal(b1-3)[Fuc(a1-4)]GlcNAc
# Method in brief: as §1
# [65] = target: Neu5Gc(a2-3)Gal(b1-4)Glc
# Method in brief: as §1
# [66] = target: Neu5Gc(a2-3)Gal(b1-4)GlcNAc
# Method in brief: as §1
# [67] = target: Neu5Gc(a2-3)Gal(b1-4)[Fuc(a1-4)]GlcNAc
# Method in brief: as §1
# [68] = target: Neu5Gc(a2-6)Gal(b1-4)GlcNAc
# Method in brief: as §1
# [69] = target: Neu5Gc(a2-6)GalNAc
# Method in brief: as §1
binder,measurement,setting,value
B1,glycan array binding signal (z-score),[1],9.99
same,glycan array binding signal (z-score),[2],-0.167
same,glycan array binding signal (z-score),[3],-0.274
same,glycan array binding signal (z-score),[4],-0.044
same,glycan array binding signal (z-score),[5],0.139
same,glycan array binding signal (z-score),[6],-0.431
same,glycan array binding signal (z-score),[7],0.167
same,glycan array binding signal (z-score),[8],0.004
same,glycan array binding signal (z-score),[9],-0.46
same,glycan array binding signal (z-score),[10],0.926
same,glycan array binding signal (z-score),[11],-0.241
same,glycan array binding signal (z-score),[12],0.104
same,glycan array binding signal (z-score),[13],-0.151
same,glycan array binding signal (z-score),[14],-0.209
same,glycan array binding signal (z-score),[15],-0.433
same,glycan array binding signal (z-score),[16],-0.339
same,glycan array binding signal (z-score),[17],-0.259
same,glycan array binding signal (z-score),[18],0.055
same,glycan array binding signal (z-score),[19],-0.225
same,glycan array binding signal (z-score),[20],0.133
same,glycan array binding signal (z-score),[21],0.381
same,glycan array binding signal (z-score),[22],-0.299
same,glycan array binding signal (z-score),[23],-0.294
same,glycan array binding signal (z-score),[24],-0.258
same,glycan array binding signal (z-score),[25],1.26
same,glycan array binding signal (z-score),[26],0.4
same,glycan array binding signal (z-score),[27],0.521
same,glycan array binding signal (z-score),[28],-0.124
same,glycan array binding signal (z-score),[29],-0.324
same,glycan array binding signal (z-score),[30],-0.087
same,glycan array binding signal (z-score),[31],0.569
same,glycan array binding signal (z-score),[32],0.256
same,glycan array binding signal (z-score),[33],-0.006
same,glycan array binding signal (z-score),[34],-0.247
same,glycan array binding signal (z-score),[35],0.103
same,glycan array binding signal (z-score),[36],-0.225
same,glycan array binding signal (z-score),[37],0.033
same,glycan array binding signal (z-score),[38],-0.03
same,glycan array binding signal (z-score),[39],7.53
same,glycan array binding signal (z-score),[40],-0.334
same,glycan array binding signal (z-score),[41],-0.245
same,glycan array binding signal (z-score),[42],-0.108
same,glycan array binding signal (z-score),[43],1.19
same,glycan array binding signal (z-score),[44],-0.286
same,glycan array binding signal (z-score),[45],-0.314
same,glycan array binding signal (z-score),[46],-0.074
same,glycan array binding signal (z-score),[47],-0.211
same,glycan array binding signal (z-score),[48],-0.081
same,glycan array binding signal (z-score),[49],-0.037
same,glycan array binding signal (z-score),[50],0.476
same,glycan array binding signal (z-score),[51],-0.287
same,glycan array binding signal (z-score),[52],-0.16
same,glycan array binding signal (z-score),[53],0.06
same,glycan array binding signal (z-score),[54],0.522
same,glycan array binding signal (z-score),[55],-0.128
same,glycan array binding signal (z-score),[56],-0.19
same,glycan array binding signal (z-score),[57],-0.03
same,glycan array binding signal (z-score),[58],5.28
same,glycan array binding signal (z-score),[59],0.086
same,glycan array binding signal (z-score),[60],0.148
same,glycan array binding signal (z-score),[61],0.417
same,glycan array binding signal (z-score),[62],-0.528
same,glycan array binding signal (z-score),[63],-0.157
same,glycan array binding signal (z-score),[64],-0.041
same,glycan array binding signal (z-score),[65],0.654
same,glycan array binding signal (z-score),[66],-0.231
same,glycan array binding signal (z-score),[67],0.569
same,glycan array binding signal (z-score),[68],0.289
same,glycan array binding signal (z-score),[69],-0.2
